B1: OR4K15 (parent)
chain: GUUAACGGUCAUAGGCCAUGGAAACUAGGAGCACCAUUUCGCUGCCAGUGAAGAAAUGAACAAAGAAAAUCUGGGCCAGGCAGGCAUCAAAAGAAAUAGUCUUGCGCUCAACCAGAAAGUCUGUAAUCAUUUUAAGGGUA

Read counts are not given, so values of variants with three or more changes are uncertain.

The data set covers variants of B1. The experiment in a line: self-cleavage, relative activity (ratio to wild type); higher = more cleavage; in vitro, sequencing; the parent is a self-cleaving ribozyme.
Take U43C A66U A114G: the self-cleavage turned out to be 0.48.
For U43A A78U A94G U102C the value was 1.65; for U43G U49A A64G A67U, 1.93.
For G44A U70C U87C U139G, the self-cleavage was 0.9.
Turning to C40U G41U U108C, the self-cleavage was 0.02.
As for C46U A67G A95G U130C, the self-cleavage worked out at 1.15.
For U43A A54G A55G A91G A94G U103C the value was 0.29.
For A47G A51G A66G U122C the value was 1.45.
For U43A A60U U72A U131C the value was 0.65.
Take U43A A56G U102A U124C U139C: the self-cleavage was 0.23.
As for A47G A60G A62C A63G A67G U87A U122C, the self-cleavage turned out to be 0.6.
For G44A U87A A96G the value was 2.45; for C46A G73A U108C A118G, 0.02; for U43C G79A A94G U120A, 0.11.
As to U43A A90G C112U A114G, the self-cleavage was 0.01.
C45U G115A A140G: the self-cleavage stood at 0.3.
Regarding U43C U57C A64G A94U, the self-cleavage came out at 2.48.
For U43C A69G A78G U127G the value was 0.25; for G41A A51G U70C, 0.94.
For G44A A95G A114G, the self-cleavage came out at 0.42.
For the variant G44A A82G U87C U122A, the self-cleavage stood at 0.25.
As for C46G U102C A118U, the self-cleavage stood at 0.98.
For U43C A86G A135G the value was 1.11.
For U43C A47U A60U U108C the value was 0.01; for U43C A68G A82G, 0.37.
For U43C A67G A94G U108C U133C U139A the value was 0; for U43C C61U G106A, 0.
As to U43C A96G A140U, the self-cleavage worked out at 0.92.
For G44A A54G A56U A64G A116G the value was 0.31.
For C40A A63G U100C U102A A126G the value was 0.9.
For G41A U100C A110G the value was 0.15; for U43C A47G A56G, 1.35; for A47G A63G A86U U87C C107U A111G, 0.
In the case of A47G A51G A94G, the self-cleavage was found to be 0.47.
For U43G A68G U100C, the self-cleavage came to 1.96.
For G41A A62G A110G U120C the value was 0.04.
Consider G44A A94C U122A, for which the self-cleavage is 0.96.
For A47G A55G U87A the value was 1.19; for G44A U72A A91G, 0.21; for U43A U103C C113U, 0.05.
With C40U A51G U87C, the self-cleavage was 1.25.
For A47G A62U A89U the value was 1.14; for A47G A62G U127A, 1.68; for U43C U72A U108A A117U, 0.
Take U43C G44A A94G U97A U127C: the self-cleavage was 1.16.
Turning to U43C U100C U103C A110G, the self-cleavage came to 0.12.
For U43C A55G U100C A111G, the self-cleavage came out at 0.03.
For U43A U87C A94G U127C the value was 1.83.
For U43A U108A U120C the value was 0; for U43C A60U A78U, 0.26; for U39G A59G A69G, 1.23.
On to A47G A91G U102C, for which the self-cleavage was found to be 1.18.
Regarding U43A A110G U139C, the self-cleavage turned out to be 0.2.
For the variant A47G A60C A96U, the self-cleavage was determined as 1.48.
For C40U A64G U108C U139C the value was 0.01; for U43C A92G U102A C109U, 0.03; for A47C A92G A114G, 0.68.
For U43C A69U U72G G83U G115A the value was 0.07; for U39C U72C U87C A140G, 0.18; for C45U A56C G138A, 0.65.
On to U43C A68G A82G A89G U108C, for which the self-cleavage came out at 0.
Turning to C40U C101A A129G, the self-cleavage was 0.1.
For U43A A55U A69G U70C the value was 0.41.
Take U43A A125U U131C A140G: the self-cleavage came to 1.51.
For U43C A95G U97C the value was 0.23; for C40A A51G A95G A96G A126G A140G, 1.46.
For C40G U87C U131C the value was 1.77.
With U43A A51G A129G, the self-cleavage is 1.02.
On to G41U A59G U87C U103A, for which the self-cleavage was found to be 0.35.
Take A47G A89G A92G U130C: the self-cleavage is 0.73.
Turning to U39C U43A A91G U102C U130C, the self-cleavage was 1.4.
For U43C A51G A55G A126G the value was 1.37.
As to G44A A66G A111G, the self-cleavage came to 0.02.
For U43C A59G A114G the value was 0.12; for C46U A55G A110G, 0.07.
Consider U43C A64G A91G, for which the self-cleavage was 1.02.
For A47G A56G A86G A111G U131C the value was 0; for A47G A51U A69U, 2.17.
For C40U A55G C61U A118G the value was 1; for U43C A59C A116G A125G A140G, 0.14; for C40U A78G A110U, 0.51.
For U43G C46U A116G the value was 0.25; for G41U A67G U108C U133C, 0.01.
As for U43C A66G A67C A125G, the self-cleavage is 0.7.
For U43C A110G A135U, the self-cleavage stood at 0.17.
For U43A A92G U102C the value was 1.79; for C42U A82U A110C, 0.03; for G44A A94G C109A, 0.19.
For U43C A55G A56G A125G the value was 0.75; for U43C A52C A59G C112U U130A, 0.01.
Regarding U43C U87C U127G G138C, the self-cleavage amounted to 0.93.
Consider U43C C45A C77A A91G A110G, for which the self-cleavage was found to be 0.15.
On to C46U A60C U72A, for which the self-cleavage was 0.45.
For the variant U43A A62U U87A, the self-cleavage stood at 2.
For A47G A56G C107U the value was 0; for G41A U100C U102A, 1.95.
Regarding C42U A63G U70C G73A, the self-cleavage is 0.24.
For C42U A52G U100C the value was 2.41; for U43C A54G A114U, 0.08; for G41A A59G U100C A117G, 2.23.
C40U A56G A96G A117U: the self-cleavage is 0.64.
C46U A95G U108C: the self-cleavage is 0.02.
For C40U U127A U132C the value was 2.48; for U43A A54G A67G, 0.87.
For the variant U43C A51G A59G A69G U139A, the self-cleavage was 0.63.
For A47G A91G U122C the value was 0.72; for U43C G73A U122C, 0.06; for U43C A54U G84A U87A U131C, 1.08.
For C46A A82G A118G U131C the value was 0.21; for C46U A64G A116C, 0.13; for C46U A54G A90G, 1.5.
As for U43G A52G U97C C105U U132C, the self-cleavage is 0.16.
For U43A A52G A54G, the self-cleavage was determined as 1.91.
In the case of U39C U120G U130C, the self-cleavage turned out to be 1.63.
For the variant C40G A63G A94C U120C, the self-cleavage is 1.32.
Consider U43A A82G G138A, for which the self-cleavage was 0.4.
For A47C A78G A86G A92G the value was 0.07.
For A47G A78G U87C the value was 0.33; for A47G A51U A98G, 0.37.
For the variant A47G A52G A67G A86G, the self-cleavage stood at 0.93.
Regarding U43C A47G A91G A111G, the self-cleavage came out at 0.02.
For C46A U49C A89G U131C the value was 1; for A47G A66G U131C, 1; for A47C A54G G80A A94G, 0.18.
For C40U A47U A114U the value was 0.01; for U43C A52G A64G, 1.41; for U43A A56G U72C A134G, 0.1.
For G41A A51G A54U A55U U103C the value was 0.18; for A47G A56G A94G A96G, 1.35; for U43C U49C A67G A114G, 0.74.
Consider U43A U57A G104A, for which the self-cleavage worked out at 0.07.
For C40G U87C A91G A126G, the self-cleavage was found to be 0.42.
For G41A U43C A86G A94G A96G U102C the value was 1.08; for A47C A62U A92G, 1.66.
For the variant U43C A54G U127C, the self-cleavage was 0.72.
For U43C A54C A64G A111G the value was 0.02; for A47C G48U A95C, 0.46; for A47G A82G A86G A140G, 0.12.
For A47G A52G A91G the value was 0.47; for A47C U108C U122C A129G, 0.01.
On to U43C A59U C77A, for which the self-cleavage turned out to be 0.61.
For U43C U49A A64G the value was 0.63.
For G41A U49G A62G U72C A96G the value was 0.11; for C40U A52G A67G, 0.49; for U43C A110G U139C, 0.16.
For U43A A69G A90G the value was 0.89; for G44A U70C A78G, 0.33; for A47G A60U A82G U100A, 0.14.
Regarding U43G G48A A56G A67G U120A U127A, the self-cleavage was 0.94.
For A47G A52G U70C A92U U132C the value was 0.49; for U43C U87C A134G, 1.31; for U43A A117U A135G, 1.09.
For the variant U43A A68G A90U U132A, the self-cleavage worked out at 1.44.
On to A47G A54G A96G, for which the self-cleavage came to 0.84.
For A47G A51G C88U, the self-cleavage worked out at 1.49.
For A47G A96U U133A the value was 1.53; for U43C A116G A117G, 0.7; for U43A U70C A114U, 0.04.
For A47G A60G A67U A82G A129G the value was 0.15; for C46G A56G A66G, 0.4.
Regarding C42U A94G C121U, the self-cleavage is 1.71.
For the variant U43C A54G A55G U122C, the self-cleavage amounted to 1.57.
For the variant C46U A51G A60G A95U A117U U122C, the self-cleavage was determined as 0.86.
For C42U U102A A117G the value was 1.4; for G44A U102C U108C A118G, 0; for U43C A60G A95U, 0.46.
For A47G A62U A94G A95G U108C the value was 0.05.

(Values after the RNAGym collection of RNA variant scans (doi:10.7554/elife.90254).)
